Like-named read-outs stand apart in the source and are kept apart here.
B1: NPM[…]F (natural protein)
chain: not shown
B2: NPM1-S4D (natural protein)
chain: not shown
B3: NPM[…]D (natural protein)
chain: not shown

Legend:
[1] = target: the molecule itself; experiment: SDS-resistant oligomer detection by SDS-PAGE
[2] = target: the molecule itself; experiment: SDS-resistant oligomer detection by SDS-PAGE; remark: listed apart in the source

Protein	binding result [1]	binding result [2]
B1	binds	
B2		binds
B3		binds

From paper doi:10.1101/2023.01.23.525122 (bioRxiv, 2023)
